# In the supplement of paper PMC8728848:
# This is one part of the list.
# Experiments:
# Assay in all cases: glycan array binding signal (z-score within array); higher = stronger binding
# Conditions in all cases: glycan notation: IUPAC condensed, linker removed
# [1] = biological target: GalNAc(b1-4)GlcNAc(b1-2)Man(a1-3)[GalNAc(b1-4)GlcNAc(b1-2)Man(a1-6)]Man(b1-4)GlcNAc(b1-4)GlcNAc
# Summary of the method: (§1)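 The binding signal is a Z-score computed within each array. Data were drawn from 3228 arrays in the Consortium for Functional Glycomics database, restricted to those with a known protein sequence. Scores were averaged over arrays of the same protein sequence at different concentrations or buffers, and over linkers, and negative values can be taken as non-binding.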
# [2] = biological target: Glc(a1-4)Glc
# Summary of the method: as §1
# [3] = biological target: Glc(a1-6)Glc(a1-6)Glc
# Summary of the method: as §1
# [4] = biological target: Glc(b1-4)Glc
# Summary of the method: as §1
# [5] = biological target: Glc(b1-6)Glc
# Summary of the method: as §1
# [6] = biological target: GlcA(b1-3)Gal
# Summary of the method: as §1
# [7] = biological target: GlcA(b1-3)GlcNAc
# Summary of the method: as §1
# [8] = biological target: GlcA(b1-6)Gal
# Summary of the method: as §1
# [9] = biological target: GlcNAc(a1-3)Gal(b1-4)GlcNAc
# Summary of the method: as §1
# [10] = biological target: GlcNAc(a1-4)Gal(b1-3)GlcNAc
# Summary of the method: as §1
# [11] = biological target: GlcNAc(a1-4)Gal(b1-4)GalNAc
# Summary of the method: as §1
# [12] = biological target: GlcNAc(a1-4)Gal(b1-4)GlcNAc
# Summary of the method: as §1
# [13] = biological target: GlcNAc(a1-4)Gal(b1-4)GlcNAc(b1-3)Gal(b1-4)Glc
# Summary of the method: as §1
# [14] = biological target: GlcNAc(a1-4)Gal(b1-4)GlcNAc(b1-3)Gal(b1-4)GlcNAc
# Summary of the method: as §1
# [15] = biological target: GlcNAc(a1-4)Gal(b1-4)GlcNAc(b1-3)Gal(b1-4)GlcNAc(b1-3)Gal(b1-4)GlcNAc
# Summary of the method: as §1
# [16] = biological target: GlcNAc(a1-4)Gal(b1-4)GlcNAc(b1-3)Gal(b1-4)[Fuc(a1-3)]GlcNAc(b1-3)Gal(b1-4)[Fuc(a1-3)]GlcNAc
# Summary of the method: as §1
# [17] = biological target: GlcNAc(a1-6)Gal(b1-4)GlcNAc
# Summary of the method: as §1
# [18] = biological target: GlcNAc(b1-2)Gal(b1-3)GalNAc
# Summary of the method: as §1
# [19] = biological target: GlcNAc(b1-2)Man(a1-3)[GlcNAc(b1-2)Man(a1-6)]Man(b1-4)GlcNAc(b1-4)GlcNAc
# Summary of the method: as §1
# [20] = biological target: GlcNAc(b1-2)Man(a1-3)[GlcNAc(b1-2)Man(a1-6)]Man(b1-4)GlcNAc(b1-4)[Fuc(a1-6)]GlcNAc
# Summary of the method: as §1
# [21] = biological target: GlcNAc(b1-2)[GlcNAc(b1-4)]Man(a1-3)[GlcNAc(b1-2)Man(a1-6)]Man(b1-4)GlcNAc(b1-4)GlcNAc
# Summary of the method: as §1
# [22] = biological target: GlcNAc(b1-3)Gal
# Summary of the method: as §1
# [23] = biological target: GlcNAc(b1-3)Gal(b1-3)GalNAc
# Summary of the method: as §1
# [24] = biological target: GlcNAc(b1-3)Gal(b1-4)Glc
# Summary of the method: as §1
# [25] = biological target: GlcNAc(b1-3)Gal(b1-4)GlcNAc
# Summary of the method: as §1
# [26] = biological target: GlcNAc(b1-3)Gal(b1-4)GlcNAc(b1-3)Gal(b1-4)GlcNAc
# Summary of the method: as §1
# [27] = biological target: GlcNAc(b1-3)GalNAc
# Summary of the method: as §1
# [28] = biological target: GlcNAc(b1-3)Man
# Summary of the method: as §1
# [29] = biological target: GlcNAc(b1-3)[GlcNAc(b1-4)][GlcNAc(b1-6)]GlcNAc
# Summary of the method: as §1
# [30] = biological target: GlcNAc(b1-3)[GlcNAc(b1-6)]Gal(b1-4)GlcNAc
# Summary of the method: as §1
# [31] = biological target: GlcNAc(b1-3)[GlcNAc(b1-6)]GalNAc
# Summary of the method: as §1
# [32] = biological target: GlcNAc(b1-3)[GlcNAc(b1-6)]GlcNAc(b1-4)GlcNAc
# Summary of the method: as §1
# [33] = biological target: GlcNAc(b1-4)Gal(b1-4)GlcNAc
# Summary of the method: as §1
# [34] = biological target: GlcNAc(b1-4)GlcNAc
# Summary of the method: as §1
# [35] = biological target: GlcNAc(b1-4)GlcNAc(b1-4)GlcNAc
# Summary of the method: as §1
# [36] = biological target: GlcNAc(b1-4)GlcNAc(b1-4)GlcNAc(b1-4)GlcNAc(b1-4)GlcNAc
# Summary of the method: as §1
# [37] = biological target: GlcNAc(b1-4)GlcNAc(b1-4)GlcNAc(b1-4)GlcNAc(b1-4)GlcNAc(b1-4)GlcNAc
# Summary of the method: as §1
# [38] = biological target: GlcNAc(b1-4)[GlcNAc(b1-6)]GalNAc
# Summary of the method: as §1
binder,measurement,setting,value
"CLEC-1 (Homo sapiens), Q9NZH3 (protein) MQAKYSSTRDMLDDDGDTTMSLHSQASATTRHPEPRRTEHRAPSSTWRPVALTLLTLCLVLLIGLAAWGLLFFQYYQLSNTGQDTISQMEERLGNTSQELQSLQVQNIKLAGSLQHVAEKLCRELYNKAGAHRCSPCTEQWKWHGDNCYQFYKDSKSWEDCKYFCLSENSTMLKINKQEDLEFAASQSYSEFFYSYWTGLLRPDSGKAWLWMDGTPFTSELFHIIIDVTSPRSRDCVAILNGMIFSKDCKELKRCVCERRAGMVKPESLHVPPETLGEGD",glycan array binding signal (z-score),[1],0.239
same,glycan array binding signal (z-score),[2],-0.176
same,glycan array binding signal (z-score),[3],-0.447
same,glycan array binding signal (z-score),[4],-0.247
same,glycan array binding signal (z-score),[5],-0.379
same,glycan array binding signal (z-score),[6],-0.201
same,glycan array binding signal (z-score),[7],-0.237
same,glycan array binding signal (z-score),[8],-0.123
same,glycan array binding signal (z-score),[9],-0.164
same,glycan array binding signal (z-score),[10],-0.516
same,glycan array binding signal (z-score),[11],-0.035
same,glycan array binding signal (z-score),[12],2.86
same,glycan array binding signal (z-score),[13],0.903
same,glycan array binding signal (z-score),[14],0.102
same,glycan array binding signal (z-score),[15],-0.105
same,glycan array binding signal (z-score),[16],0.6
same,glycan array binding signal (z-score),[17],2.11
same,glycan array binding signal (z-score),[18],-0.172
same,glycan array binding signal (z-score),[19],-0.064
same,glycan array binding signal (z-score),[20],0.135
same,glycan array binding signal (z-score),[21],-0.541
same,glycan array binding signal (z-score),[22],-0.083
same,glycan array binding signal (z-score),[23],0.029
same,glycan array binding signal (z-score),[24],-0.094
same,glycan array binding signal (z-score),[25],-0.24
same,glycan array binding signal (z-score),[26],-0.455
same,glycan array binding signal (z-score),[27],-0.285
same,glycan array binding signal (z-score),[28],-0.059
same,glycan array binding signal (z-score),[29],1.91
same,glycan array binding signal (z-score),[30],0.743
same,glycan array binding signal (z-score),[31],-0.462
same,glycan array binding signal (z-score),[32],-0.115
same,glycan array binding signal (z-score),[33],-0.016
same,glycan array binding signal (z-score),[34],-0.398
same,glycan array binding signal (z-score),[35],1.49
same,glycan array binding signal (z-score),[36],-0.341
same,glycan array binding signal (z-score),[37],-0.01
same,glycan array binding signal (z-score),[38],-0.424
